# According to PubChem BioAssay AID463173 (ICCB-Longwood Screening Facility, Harvard Medical School, 2010):
# Where “and” joins values, the source holds several entries; their conditions need not be identical. Equal values may be shown once. In all, about 52,000 compounds went through this assay and about 4,300 (8.3%) were called active. Cut-off read from the data, not from the text of the source: active = survival mostly below about 52% (no sharp cut-off); inactive = mostly above about 56%. The list shows a part of the results. Some structures have more than one record in an assay (separate samples or runs), and their calls can disagree.
# Test system: DeltatarO mutant
# Test: S. aureus survival, RN4220 and DeltatarO strains – OD600, teichoic acid synthesis inhibitors, primary screen (AID 463173)
# Conditions: S. aureus RN4220 wild type/DeltatarO growth, OD600, 18 h, stronger effect = lower value, screened at 18.75 µg/mL (by protocol)
row,SMILES,survival
1,CCc1ccc(C2c3c(oc4cc(C)c(C)cc4c3=O)C(=O)N2c2nc(C)c(C(=O)OC)s2)cc1 (centres undefined),inactive: 78%
2,COc1cc(OC)c(C2C(C(=O)Nc3ccccc3)=C(C)Nc3ncnn32)cc1OC (centres undefined),inactive: 72%
3,COc1ccc(-c2noc(CC(=O)Nc3ccc(C)c(F)c3)n2)cc1,inactive: 91%
4,O=C(NCC(c1ccco1)S(=O)(=O)c1cccs1)c1ccc(Cl)cc1 (centres undefined),inactive: 102%
5,Cc1cc(C(=O)NCc2ccccc2Cl)c2c(C)nn(-c3cccc(F)c3)c2n1,inactive: 68%
6,CCCN(C(=O)Nc1cn(CC(C)C)c(=O)c2ccccc12)c1ccc(F)cc1,inactive: 82%
7,O=C(Nc1ccccc1)NC1(C(=O)NCc2ccc3c(c2)OCO3)CCCCC1,active: 6%
8,CC(=O)N1CCc2c(sc3c2c(=O)n(-c2ccc(C)cc2)c(=O)n3Cc2ccccc2C)C1,inactive: 126%
9,CCCCNC(=O)c1ccc2c(c1)NC(=O)C(CS(=O)(=O)Cc1ccc(C)cc1)N2 (centres undefined),inactive: 87%
10,Cc1c(Cl)cccc1NC(=O)Cn1c(=O)n(Cc2nc(-c3ccccc3)no2)c(=O)c2cc3c(cc21)OCO3,inactive: 102%
11,CCc1nn(CC(=O)NCCCc2ccccc2)c(=O)c2cc3ccccc3n12,inactive: 90%
12,CCCC(=O)Nc1cccc(-c2cn3c(C)csc3n2)c1,active: -5%
13,CCc1ccc(CNC(=O)c2cnc3c(C)cccn3c2=O)cc1,inactive: 80%
14,Cc1ccc(Nc2cc(C)c(C#N)c3nc4ccccc4n23)c(C)c1,active: 38%
15,Cc1c(Cl)cccc1NC(=O)C1CCN(c2nc3ccccc3[nH]2)CC1,inactive: 95%
16,COc1cc(C2Nc3ccccc3-c3nnc(SCc4ccc(C)cc4)nc3O2)cc(OC)c1O (centres undefined),inactive: 140%
17,CC(C)CCNC(=O)C(=O)Nc1c2c(nn1-c1ccc(Cl)cc1)CSC2,inactive: 86%
18,CCn1c(CN2CCC(C)CC2)nc2cc(NC(=O)c3ccc([N+](=O)[O-])cc3)ccc21,inactive: 86%
19,Cc1ccc(-n2nc(-c3ccccc3)c3cnc4cc5c(cc4c32)OCO5)cc1C,inactive: 127%
20,CC(=O)Nc1cccc(NC(=O)CSc2ccc(-c3sc(-c4ccccc4)nc3C)nn2)c1,active: -14%
21,Cc1cccc(Nc2nnc(-c3ccc(C)c(S(=O)(=O)N4CCN(C)CC4)c3)c3ccccc23)c1,inactive: 138%
22,Cc1cccc(C(C)C)c1NC(=O)c1ccc2c(c1)CCN2S(C)(=O)=O,inactive: 74%
23,COc1ccc(N2CCN(C(=O)c3ccccc3N(C)S(C)(=O)=O)CC2)cc1,inactive: 85%

row,SMILES,survival
1,Cc1nn2c(=O)cc(COC(=O)c3cccc(NC(=O)c4ccc(F)cc4)c3)nc2s1,inactive: 81%
2,CCOC(=O)Cc1c(C(=O)OCC)nnc2c(-c3ccccc3)c(C)nn12,inactive: 75%
3,CC(=O)c1ccc(NC(=O)CC2Oc3ccc(C)cc3NC2=O)cc1 (centres undefined),inactive: 85%
4,COCCNc1oc(-c2ccc(OC)cc2)nc1C#N,inactive: 54%
5,CCOC(=O)c1cccc(NC(=O)N2CC=C(c3c[nH]c4ccccc34)CC2)c1,inactive: 83%
6,COc1ccc(OC)c(NC(=O)N2CC3CCCN3c3ccccc32)c1 (centres undefined),inactive: 89%
7,CCCN1C2CCCC1CC(NC(=O)Nc1ccccc1C(F)(F)F)C2 (centres undefined),inactive: 60%
8,Cc1cc(Nc2ccc(Br)c(C)c2)n2nc(-c3ccco3)nc2n1,active: -5%
9,CCN(CC)C(=O)Cn1c(=O)n(CCc2ccccc2)c(=O)c2ccccc21,inactive: 100%
10,COc1cccc(N2CCN(c3ncnc4c3c(-c3ccccc3)cn4-c3cccc(C(F)(F)F)c3)CC2)c1,inactive: 84%
11,CCCNC(=O)N1[C@H](c2cccs2)[C@@H](C)C(=O)[C@@H](C)[C@@H]1c1cccs1,inactive: 107%
12,COc1ccc(S(=O)(=O)NCC(c2ccc(N(C)C)cc2)N2CCc3ccccc32)cc1F (centres undefined),inactive: 84%
13,COc1ccc(CNC2CCCC2)cc1,inactive: 79%
14,CCOC(=O)c1ccccc1NC(=O)COC(=O)CC(C)(C)CC1=NS(=O)(=O)c2ccccc2N1,inactive: 67%
15,Cc1cc(C)n2nc(CNS(=O)(=O)c3ccccc3)nc2n1,inactive: 119%
16,CCOc1ccc(S(=O)(=O)N2CCC(c3ccncc3)CC2)cc1,inactive: 134%
17,Cc1ccc(N2C(=O)CC(NCC(=O)O)C2=O)c(C)c1 (centres undefined),inactive: 89%
18,COc1cccc(NC(=O)c2oc3ccc(S(=O)(=O)N4CCCCCC4)cc3c2C)c1,inactive: 95%
19,COC(=O)c1ccccc1NC(=O)c1nn(-c2ccc(OC)cc2)c(=O)c2c1c1ccccc1n2C,inactive: 88%
20,COc1cccc(NC(=O)C2CCN(S(=O)(=O)c3ccc4[nH]c5c(c4c3)CCCCC5)CC2)c1,inactive: 70%
21,CCOC(=O)C(C)Sc1nc(-c2ccccc2)ccc1C#N (centres undefined),inactive: 82% and active: -1%
22,CCC(C)NC(=O)c1c(C)oc2nc(C)nc(N3CCOCC3)c12 (centres undefined),inactive: 83%
23,Cc1ccc(NC(=O)c2ccc3snnc3c2)cc1C,inactive: 109%

row,SMILES,survival
1,Cc1cc(C)n(-c2nc(C)c(C)c(=O)n2CC(=O)Nc2cccc([N+](=O)[O-])c2)n1,active: 52%
2,CCOC(=O)c1ccc(NC(=O)Cn2c3ncccc3c(=O)n2-c2ccc(C)c(C)c2)cc1,inactive: 77%
3,COc1ccc(-c2cc(C(=O)NCCc3ccc(OC)c(OC)c3)c3c(-c4ccc(F)cc4)[nH]nc3n2)cc1,inactive: 69%
4,COc1cccc(NC(=O)CN(c2cccc(OC)c2)S(C)(=O)=O)c1,inactive: 99%
5,COC(=O)CC(=O)CSc1nc2cc(C(=O)NCC(C)C)ccc2c(=O)n1CCc1ccccc1,inactive: 128%
6,O=C(Nc1ccccc1C(F)(F)F)N1CC=C(c2c[nH]c3ccccc23)CC1,inactive: 117%
7,COc1ccc(-c2cc3nc(C)c(CCC(=O)NC(C)c4ccccc4)c(C)n3n2)c(OC)c1 (centres undefined),inactive: 84%
8,COc1ccc(-c2onc(C)c2C)cc1S(=O)(=O)N1CCN(c2cc(C)ccc2C)CC1,inactive: 81%
9,Cc1c(Cl)ccc2sc(N3CCN(C(=O)C4CC4)CC3)nc12,inactive: 98%
10,Cc1nn(C(=O)c2cccc([N+](=O)[O-])c2C)c(C)c1S(=O)(=O)N1CCCCCC1,active: -2%
11,CCOc1ccc(N(CC)S(=O)(=O)N2CCCC(C(=O)Nc3ccc(OC)c(Cl)c3)C2)cc1 (centres undefined),inactive: 83%
12,Cc1cccc(NC(=O)CN2C(=O)CSc3ccc(S(=O)(=O)N4CCCC4)cc32)c1C,inactive: 92%
13,O=C(O)c1ccccc1C(=O)Nc1cccnc1,inactive: 89%
14,COc1cccc(NC(=O)CSc2c3c(nc4ccccc24)CCCC3)c1,active: 43%
15,O=C(Cn1c(C(=O)NC2CCCCC2)cc2sccc21)c1ccccc1,inactive: 85%
16,CCc1ccccc1NC(=O)Cn1nc(N2CCN(c3ccccc3OC)CC2)ccc1=O,inactive: 89%
17,CCOc1ccccc1C(=O)N1CCC(c2nc3ccccc3o2)CC1,inactive: 80%
18,COc1ccc(OC)c(NC(=O)CC(=O)Nc2ccc3nc4n(c(=O)c3c2)CCCCC4)c1,inactive: 69%
19,Cc1nc(SCC(=O)Nc2ccc(C(=O)O)cc2)n[nH]1,inactive: 92%
20,Cc1cc(C)c(OCCOCCn2c(-c3ccc(Cl)cc3)nc3ccccc3c2=O)c(C)c1,active: 43%
21,Cc1ccc(C2CCN(C(=O)c3cnn(-c4ccc(C)c(C)c4)c3C3CCN(C(=O)OC(C)(C)C)CC3)C2)cc1 (centres undefined),inactive: 90%
22,N#Cc1cc(-c2ccccc2C(F)(F)F)no1,inactive: 83%
23,Cc1cccc(NC(=O)CCS(=O)(=O)c2cc(Br)cc3c2N(C(=O)C2CC2)CC3)c1,inactive: 111%

row,SMILES,survival
1,Cc1ccc(CNC(=O)CC2Oc3ccc(Cl)cc3NC2=O)cc1 (centres undefined),inactive: 81%
2,Cc1ccc(CN(Cc2ccco2)C(=O)COc2ccc(C)c(C)c2)cc1,inactive: 68%
3,CCOc1ccc(NS(=O)(=O)c2ccc3c4c(cccc24)C(=O)N3)cc1,inactive: 83%
4,CC(C)(C)c1ccc(C(=O)NCC(c2ccc(Cl)cc2)N2CCOCC2)cc1 (centres undefined),inactive: 86%
5,CCc1ccc(S(=O)(=O)Nc2cccc(-c3ccc(N4CCOCC4)nn3)c2)cc1,inactive: 76%
6,COc1ccc(OC)c(S(=O)(=O)Nc2cccc(-c3ccc(N4CCCCC4)nn3)c2)c1,inactive: 83%
7,Cn1ncc(Cl)c1C(=O)O,inactive: 94%
8,Cc1ccc(C)c(N2CCN(C(=O)CSCc3ccccc3Cl)CC2)c1,inactive: 115%
9,COc1cccc(NC(=O)CC2Nc3cc(C)c(C)cc3NC2=O)c1 (centres undefined),inactive: 89%
10,Cc1ccc(CNC(=O)c2ccc3nc(SCc4ccc(F)cc4)[nH]c3c2)cc1,inactive: 72%
11,COc1cccc(-c2nc(SCC(=O)NC3CCCC3)c(-c3ccc(C)cc3)[nH]2)c1,inactive: 107%
12,CC1=C(c2ccc(C(C)C)cc2)S(=O)(=O)N=C1N1CCC(C(=O)NCCc2ccco2)CC1,active: 6%
13,CN(N)C1=NS(=O)(=O)c2ccccc21,inactive: 67%
14,CCN(CC)C(=O)CSc1nc(-c2ccc(C)cc2)nc2c1Cc1c(CO)cnc(C)c1O2,active: 39%
15,COc1ccc(N2CC(NC(=O)c3ccc(S(=O)(=O)N4CCCCC4)cc3)CC2=O)cc1 (centres undefined),inactive: 83%
16,CCOc1ccc(CNC(=O)c2ccc3c(c2)nc2n3CCOC2)cc1OC,active: 6%
17,CCc1cccc(NC(=O)C(Cc2ccccc2)n2cccc2)c1 (centres undefined),active: 18%
18,CC(C)(C)c1ccc(CSc2n[nH]c(=O)[nH]c2=O)cc1,inactive: 98%
19,CC(C)CC(=O)N(c1nnc(-c2cccnc2)s1)C1CCCC1,inactive: 101%
20,CC1=C(C(=O)Nc2ccc(F)cc2F)C2(CCN(C(C)C)CC2)OC1=O,inactive: 49%
